# From PubChem BioAssay (NCATS)
# This list was built around the results that the source calls inconclusive (neither active nor inactive); the mix of calls is not that of the screen. Entries that show only a call come without a potency. For some assays here: Where the call is inconclusive, the potency comes from a doubtful curve fit. Active and inactive are the calls of the source. The call rests on the fitted dose curve; in most records, active means well fitted curve in the direction sought with a large enough effect; inconclusive means small, poorly fitted or top-dose-only effect, or another doubt; inactive means no such curve, though single readings can be large; an effect the other way counts as inactive or inconclusive.
# How the values were obtained:
# WaGa = experiment: qHTS assay to identify novel small-molecules to repurpose for Merkel cell carcinoma treatment (AID 1296009); conditions: MCC and control cell lines, CellTiter-Glo viability, 72 h; series mostly up to 46 µM; further: nearly all actives have a fitted effect of over 60% in size
# Procedure, shortened: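 Cell viability, measured as CellTiter-Glo luminescence, was normalized between DMSO and no-cell wells. The cells had been exposed to 8- or 11-point compound dilutions for 72 hr at 37 degree celsius.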
# JEG-3 = experiment: Primary qHTS to identify gynecologic anti-cancer compounds using libraries of approved drugs and bioactive compounds (AID 1345084); conditions: Gynecologic cancer cell panel viability, ATPlite luminescence, 48 h; series mostly up to 57.5 µM; further: nearly all actives have a fitted effect of over 55% in size
# Procedure, shortened: (§1)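 Cytotoxicity screen measuring ATP content by luciferase luminescence. Each compound is applied at five concentrations for 48 h at 37 C with 5% CO2.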
# SC27B = experiment: qHTS profiling for inhibitors of Plasmodium falciparum proliferation (AID 504749); further: nearly all actives have a fitted effect of over 60% in size; conditions: P. falciparum in erythrocytes, SYBR Green DNA, 72 h; series mostly up to 28.7 µM
# Procedure, shortened: (§2)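 SYBR Green fluorescence of parasite DNA, read after lysis and overnight dark incubation, measured growth over 72 h in erythrocyte culture at 0.3% parasitemia and 2.5% hematocrit. Data normalised to DMSO and 0.29 uM artemisinin, with plate-drift correction.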
# TAB113 = experiment: as above; conditions: P. falciparum in erythrocytes, SYBR Green DNA, 72 h; series mostly up to 28.7 µM
# Procedure, shortened: as §2
# W2 = experiment: as above; conditions: P. falciparum in erythrocytes, SYBR Green DNA, 72 h; series mostly up to 28.7 µM
# Procedure, shortened: as §2
# CAOV3 = experiment: Primary qHTS to identify gynecologic anti-cancer compounds using libraries of approved drugs and bioactive compounds (AID 1345084); conditions: Gynecologic cancer cell panel viability, ATPlite luminescence, 48 h; series mostly up to 57.5 µM; further: nearly all actives have a fitted effect of over 55% in size
# Procedure, shortened: as §1
# HeLa = experiment: as above; conditions: Gynecologic cancer cell panel viability, ATPlite luminescence, 48 h; series mostly up to 57.5 µM
# Procedure, shortened: as §1
# PC49 = experiment: qHTS profiling for inhibitors of Plasmodium falciparum proliferation (AID 504749); further: nearly all actives have a fitted effect of over 60% in size; conditions: P. falciparum in erythrocytes, SYBR Green DNA, 72 h; series mostly up to 28.7 µM
# Procedure, shortened: as §2
# TAB165 = experiment: as above; conditions: P. falciparum in erythrocytes, SYBR Green DNA, 72 h; series mostly up to 28.7 µM
# Procedure, shortened: as §2
# CASKI = experiment: Primary qHTS to identify gynecologic anti-cancer compounds using libraries of approved drugs and bioactive compounds (AID 1345084); conditions: Gynecologic cancer cell panel viability, ATPlite luminescence, 48 h; series mostly up to 57.5 µM; further: nearly all actives have a fitted effect of over 55% in size
# Procedure, shortened: as §1
# C33A = experiment: as above; conditions: Gynecologic cancer cell panel viability, ATPlite luminescence, 48 h; series mostly up to 57.5 µM
# Procedure, shortened: as §1
# OV90 = experiment: as above; conditions: Gynecologic cancer cell panel viability, ATPlite luminescence, 48 h; series mostly up to 57.5 µM
# Procedure, shortened: as §1
# Hek293T = experiment: as above; conditions: Gynecologic cancer cell panel viability, ATPlite luminescence, 48 h, control line for the selectivity index; series mostly up to 57.5 µM
# Procedure, shortened: as §1
# Es-2 = experiment: as above; conditions: Gynecologic cancer cell panel viability, ATPlite luminescence, 48 h; series mostly up to 57.5 µM
# Procedure, shortened: as §1
# TAB109 = experiment: qHTS profiling for inhibitors of Plasmodium falciparum proliferation (AID 504749); further: nearly all actives have a fitted effect of over 60% in size; conditions: P. falciparum in erythrocytes, SYBR Green DNA, 72 h; series mostly up to 28.7 µM
# Procedure, shortened: as §2
# Potency means the concentration at half of the fitted maximal effect; tags describe the fitted curve by direction and shape.
compound,measurement,setting,value
CC(C)(N)Cc1ccccc1Cl,Potency,WaGa,inactive
same,Potency,JEG-3,inactive
CCN(Cc1ccc(Cl)nc1)/C(=C/[N+](=O)[O-])NC,Potency,SC27B,inactive
same,Potency,TAB113,inactive
same,Potency,W2,"inconclusive: 15.1 µM [inhibitor, single point]"
same,Potency,WaGa,inactive
same,Potency,CAOV3,inactive
same,Potency,HeLa,inactive
CCCCCCCCCC(=O)O[C@H]1CC[C@H]2[C@@H]3CCC4=CC(=O)CC[C@@H]4[C@H]3CC[C@]12C,Potency,W2,"inconclusive: 10.7 µM [inhibitor, single point]"
same,Potency,WaGa,"inconclusive: 13.3 µM [inhibitor, partial curve, poor fit]"
Nc1ccccc1C(=O)O,Potency,PC49,inactive
same,Potency,WaGa,inactive
CC(=O)[C@H]1CC[C@H]2[C@@H]3CC[C@H]4C[C@](C)(O)CC[C@]4(C)[C@H]3CC[C@]12C,Potency,TAB113,inactive
same,Potency,TAB165,inactive
same,Potency,W2,"inconclusive: 13.5 µM [inhibitor, single point]"
same,Potency,WaGa,inactive
CC(C)=C[C@@H]1[C@@H](C(=O)OCc2coc(Cc3ccccc3)c2)C1(C)C,Potency,WaGa,"inconclusive: 26.6 µM [inhibitor, partial curve, poor fit]"
same,Potency,JEG-3,inactive
COc1ccc(C(=O)N2CCCC2=O)cc1,Potency,WaGa,inactive
same,Potency,CAOV3,inactive
same,Potency,CASKI,inactive
CCN[C@@H](C)Cc1ccccc1,Potency,WaGa,inactive
same,Potency,CAOV3,"inconclusive: 3.98 µM [cytotoxic, single point]"
OCc1nnc2n1-c1ccc(Cl)cc1C(c1ccccc1Cl)=NC2,Potency,C33A,inactive
COc1cccc2c1[C@]13CCN(CC4CC4)[C@H](C2)[C@]1(OC)CCC(=O)C3,Potency,WaGa,inactive
OC1(c2ccc(Cl)cc2)c2ccccc2C2=NCCN21 (stereo unspecified),Potency,C33A,inactive
O=c1oc2ccccc2c(O)c1Cc1c(O)c2ccccc2oc1=O,Potency,TAB165,inactive
same,Potency,W2,inactive
same,Potency,WaGa,inactive
CC1N=C(N)OC1c1ccccc1 (stereo unspecified),Potency,WaGa,"inconclusive: 67.2 µM [inhibitor, single point]"
CC(C)=CCN1CC[C@@]2(C)c3cc(O)ccc3C[C@@H]1[C@@H]2C,Potency,WaGa,"inconclusive: 26.8 µM [inhibitor, partial curve]"
CN1C(=O)[C@]23CC4C(C)(C)[C@@]5(C[C@@]41CN2CC[C@@]3(C)O)C(=O)Nc1c5ccc2c1OC=CC(C)(C)O2 (stereo partly specified),Potency,C33A,inactive
O=C(Nc1ccccc1-c1ccc(Cl)cc1)c1cccnc1Cl,Potency,WaGa,"inconclusive: 27.3 µM [inhibitor, partial curve, poor fit]"
same,Potency,HeLa,inactive
same,Potency,OV90,"inconclusive: 35.5 µM [cytotoxic, single point]"
CCc1c(C(=O)C(N)=O)c2c(OCC(=O)O)cccc2n1Cc1ccccc1,Potency,WaGa,inactive
CC(O)CN1CCN(CC(=O)[O-])CCN(CC(=O)[O-])CCN(CC(=O)[O-])CC1.[Gd+3] (stereo unspecified),Potency,WaGa,inactive
COP(=S)(OC)Oc1ccc(Sc2ccc(OP(=S)(OC)OC)cc2)cc1,Potency,WaGa,inactive
same,Potency,HeLa,inactive
same,Potency,Hek293T,"inconclusive: 8.91 µM [rising, partial curve]"
CN1C2CCC1CC(OC(=O)N1Cc3ccccc3NC1=O)C2 (stereo unspecified),Potency,C33A,inactive
CC(Cc1ccccc1)NCCn1cnc2c1c(=O)n(C)c(=O)n2C (stereo unspecified),Potency,WaGa,inactive
same,Potency,CAOV3,inactive
same,Potency,OV90,inactive
C=C(CO)C(=O)O[C@H]1C/C(C)=C/CC/C(CO)=C/[C@H]2OC(=O)C(=C)[C@H]12,Potency,C33A,inactive
Cc1ccc(-c2nc3ccc(C)cn3c2CC(=O)N(C)C)cc1,Potency,W2,inactive
same,Potency,WaGa,inactive
[N-]=[N+]=CC(=O)OC[C@H](N)C(=O)O,Potency,WaGa,inactive
same,Potency,CAOV3,inactive
COc1ccc(CC2NCCc3cc(OC)c(OC)cc32)cc1OC (stereo unspecified),Potency,WaGa,inactive
Cc1ncc2n1-c1ccc(Cl)cc1C(c1ccccc1F)=NC2,Potency,WaGa,"inconclusive: 29.9 µM [inhibitor, single point]"
same,Potency,CASKI,inactive
same,Potency,Es-2,inactive
same,Potency,OV90,"inconclusive: 39.8 µM [cytotoxic, single point]"
C#C[C@]1(O)CC[C@H]2[C@@H]3CCC4=CC(=O)CC[C@]4(C)[C@H]3CC[C@@]21C,Potency,WaGa,inactive
CC(C)(C)NC[C@H](O)c1ccc(O)cc1Cl,Potency,C33A,"inconclusive: 5.62 µM [cytotoxic, single point]"
CN1CCc2cc(Cl)c(O)cc2[C@H]2c3ccccc3CC[C@@H]21,Potency,SC27B,"inconclusive: 11.2 µM [inhibitor, partial curve]"
same,Potency,TAB109,"inconclusive: 4.47 µM [inhibitor, partial curve]"
same,Potency,TAB113,inactive
same,Potency,TAB165,"inconclusive: 12.6 µM [inhibitor, single point]"
same,Potency,W2,active: 4.78 µM
same,Potency,WaGa,"inconclusive: 26.6 µM [inhibitor, partial curve]"
same,Potency,C33A,inactive
same,Potency,Es-2,inactive
same,Potency,JEG-3,"inconclusive: 39.8 µM [rising, single point]"
same,Potency,OV90,"inconclusive: 39.8 µM [cytotoxic, single point]"
CC(Cc1ccc(O)cc1)NCC(O)c1cc(O)cc(O)c1 (stereo unspecified),Potency,WaGa,inactive
same,Potency,C33A,"inconclusive: 31.6 µM [cytotoxic, single point]"
same,Potency,OV90,"inconclusive: 8.91 µM [rising, single point]"
C#CCN(C)[C@H](C)Cc1ccccc1,Potency,WaGa,inactive
same,Potency,Es-2,inactive
